Measured values: patent publication US8586505B2 (SDS Biotech K. K., priority 2009, dated 2013)

Columns and labels:
Experiment in all cases: whole plant or invertebrate
[1] = test system: Aphis gossypii; conditions: in Cucumis sativus, 48 h, read-out: Determination (mortality rate)
[2] = test system: Tetranychus urticae female adults; conditions: 48 h, read-out: Determination (mortality rate)
Experimental: A kidney bean leaf section having a diameter of 3 cm was placed on a wet sponge in a plastic cup. Thereafter, ten female adults of Tetranychus urticae were released into the plastic cup. 0.4 ml each of an agent solution prepared by diluting a 10% wettable powder of each compound shown in Table 1 to a concentration of 250 ppm was sprayed thereto. Two days later, the number of deaths was counted, and the mortality rate was then calculated.

[3] = test system: Spodptera litura; conditions: Brassica rapa, 48 h, read-out: Determination (mortality rate)
Experimental: A Chinese cabbage leaf section having a diameter of 3 cm was immersed in an agent solution prepared by diluting a 10% wettable powder of each compound shown in Table 1 to a concentration of 500 ppm, and it was then subjected to air drying. Thereafter, the Chinese cabbage leaf was placed in a plastic petri dish, and 10 third-instar larvae of Spodptera litura were released therein. Two days after the treatment, the number of deaths was counted, and the mortality rate was then calculated.

Question: `CC(CC#Cc1ccc(F)cc1C(F)(F)F)Nc1ncnc2cc(F)ccc12` (stereo not drawn) [compound 347] was tested. Which mortality at 250 ppm [1] did it give?
Answer: > 95%

Question: What about the mortality at 250 ppm [2] of the same compound?
Answer: > 95%

Question: And the mortality at 500 ppm [3]?
Answer: > 95%

Question: With `CC(CC#Cc1ccc(Cl)cc1)Nc1ncnc2sccc12` (stereo not drawn) [compound 232] as the compound, how does the mortality at 250 ppm [1] read?
Answer: > 95%

Question: What about the mortality at 250 ppm [2] of the same compound?
Answer: 80 to 95%

Question: What about the mortality at 500 ppm [3] of the same compound?
Answer: 60 to 80%

Question: With `CC(CC#Cc1ccc(Cl)cc1C(F)(F)F)Nc1ncnc2ccccc12` (stereo not drawn) [compound 285] as the compound, how does the mortality at 250 ppm [1] read?
Answer: > 95%

Question: And the mortality at 250 ppm [2]?
Answer: > 95%

Question: What about the mortality at 500 ppm [3] of the same compound?
Answer: > 95%

Question: `Cc1ncnc(NCCC#Cc2ccc(Cl)cc2C(F)(F)F)c1Cl` [compound 360] was tested. Which mortality at 250 ppm [1] did it give?
Answer: > 95%

Question: What about the mortality at 250 ppm [2] of the same compound?
Answer: 60 to 80%

Question: And the mortality at 500 ppm [3]?
Answer: 60 to 80%

Question: `FC(F)=Cc1ccc(C#CCCNc2ncnc3ccccc23)cc1` [compound 113] was tested. Which mortality at 250 ppm [1] did it give?
Answer: > 95%

Question: And the mortality at 250 ppm [2]?
Answer: > 95%

Question: What about the mortality at 500 ppm [3] of the same compound?
Answer: 60 to 80%

Question: Which mortality at 250 ppm [1] does the source give for `CC(CC#Cc1ccc(S(F)(F)(F)(F)F)cc1)Nc1ncnc2sccc12` (stereo not drawn) [compound 238] here?
Answer: 80 to 95%

Question: And the mortality at 250 ppm [2]?
Answer: 60 to 80%

Question: And the mortality at 500 ppm [3]?
Answer: > 95%

Question: How did the mortality at 250 ppm [1] turn out when `COCc1ccccc1C#CCCNc1ncnc2ccc(-c3cccnc3)cc12` [compound 337] was run?
Answer: > 95%

Question: And the mortality at 250 ppm [2]?
Answer: > 95%

Question: What about the mortality at 500 ppm [3] of the same compound?
Answer: > 95%

Question: How did the mortality at 250 ppm [1] turn out when `COc1cccc2c(NC(C)CC#Cc3ccc(F)cc3C(F)(F)F)ncnc12` (stereo not drawn) [compound 353] was run?
Answer: > 95%

Question: What about the mortality at 250 ppm [2] of the same compound?
Answer: > 95%

Question: What about the mortality at 500 ppm [3] of the same compound?
Answer: > 95%

Question: With `CC(CC#Cc1ccc(F)cc1C(F)(F)F)Nc1ncnc2ccccc12` (stereo not drawn) [compound 286] as the compound, how does the mortality at 250 ppm [1] read?
Answer: > 95%

Question: And the mortality at 250 ppm [2]?
Answer: > 95%

Question: What about the mortality at 500 ppm [3] of the same compound?
Answer: > 95%

Question: With `Cc1ncnc(NC(C)CC#Cc2ccc(Cl)cc2C(F)(F)F)c1Br` (stereo not drawn) [compound 387] as the compound, how does the mortality at 250 ppm [1] read?
Answer: > 95%

Question: And the mortality at 250 ppm [2]?
Answer: > 95%

Question: And the mortality at 500 ppm [3]?
Answer: 80 to 95%

Question: What does the source list for `COCc1ccccc1C#CCC(C)Nc1ncnc2ccccc12` (stereo not drawn) [compound 278]?
Answer: mortality at 250 ppm [1]: > 95%; mortality at 250 ppm [2]: > 95%; mortality at 500 ppm [3]: > 95%

Question: With `CC(CC#Cc1ccc(F)cc1C(F)(F)F)Nc1ncnc2sccc12` (stereo not drawn) [compound 249] as the compound, how does the mortality at 250 ppm [1] read?
Answer: > 95%

Question: What about the mortality at 250 ppm [2] of the same compound?
Answer: > 95%

Question: What about the mortality at 500 ppm [3] of the same compound?
Answer: > 95%

Question: Which results are given for `N#Cc1ccccc1C#CCCNc1ncnc2ccccc12` [compound 102]?
Answer: mortality at 250 ppm [1]: > 95%; mortality at 250 ppm [2]: 60 to 80%; mortality at 500 ppm [3]: > 95%

Question: `CC(CC#Cc1ccc(Cl)cc1C(F)(F)F)Nc1ncnc2ncccc12` (stereo not drawn) [compound 384] was tested. Which mortality at 250 ppm [1] did it give?
Answer: > 95%

Question: And the mortality at 250 ppm [2]?
Answer: > 95%

Question: What about the mortality at 500 ppm [3] of the same compound?
Answer: 80 to 95%

Question: `COCc1ccccc1C#CCCNc1ncnc2ccc([N+](=O)[O-])cc12` [compound 331] was tested. Which mortality at 250 ppm [1] did it give?
Answer: > 95%

Question: What about the mortality at 250 ppm [2] of the same compound?
Answer: > 95%

Question: What about the mortality at 500 ppm [3] of the same compound?
Answer: > 95%

Question: Which results are given for `C=CC(CC#Cc1ccc(F)cc1)Nc1ncnc2ccccc12` (stereo not drawn) [compound 297]?
Answer: mortality at 250 ppm [1]: > 95%; mortality at 250 ppm [2]: > 95%; mortality at 500 ppm [3]: 80 to 95%
